# Measured values published in ChEMBL document CHEMBL1201862, “PubChem BioAssay data set” (2004).
#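 Where inhibition never reached the appropriate level, the endpoint shown equals the highest concentration tested. Otherwise, values were interpolated linearly from a five-concentration, 48-hour dose response in 96-well plates. Here, GI50 denotes the concentration required for 50% inhibition of growth.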 The source made the active and inactive calls. No stated cut-off is given here; in the data, active = GI50 up to about 1.1 µM and inactive = higher.
# Test system: NCI-H322M
# Test: inhibition of tumour cell growth, NCI panel, 48 h
row,Structure (SMILES),GI50
1,O=C(CC1(O)C(=O)Nc2ccccc21)c1cccc(O)c1 (stereo not given),inactive: > 100 µM
2,CC(C)=CCc1cc2c(cc1O)OC[C@H]1c3cc4c(cc3O[C@@H]21)OCO4,inactive: 63.7 µM
3,O=C1CCC(=O)c2c1c(O)c1ccncc1c2O,inactive: 27.8 µM
4,CCOP(=O)(O)C(Nc1ccc(/N=N/c2ccccc2)cc1)c1cccc(C(Nc2ccc(/N=N/c3ccccc3)cc2)P(=O)(O)OCC)c1 (stereo not given),inactive: 31.3 µM
5,COc1ccc(-c2cc(-c3ccccc3)nc(N)n2)c(O)c1,inactive: > 94.4 µM
6,CC1=C/C(=C2/N=C(N(C)C)SS2)C(C)=N1.[O-][Cl+3]([O-])([O-])O,inactive: > 100 µM
7,CC1OC(OC2C(O[C@H]3CC[C@@]4(C)[C@@H](CC[C@@H]5[C@@H]4CC[C@]4(C)[C@@H]6[C@H](C[C@@H]54)O[C@]4(CC[C@@H](C)CO4)[C@H]6C)C3)OC(CO)C(OC3OC(CO)C(O)C(OC4OCC(O)C(O)C4O)C3OC3OCC(O)C(O)C3O)C2O)C(O)C(O)C1O (stereo not given in full),inactive: 1.29 µM
8,O=C(O)c1ccccc1CC1Cc2ccc3c(c2C1=O)CCC3 (stereo not given),inactive: > 100 µM
9,CN(C)CCCNC1=C(Cl)C(=O)c2c(O)ccc(O)c2C1=O,inactive: 1.7 µM
10,CC(C)N(C(=O)C12C3C4C5C3C1(C#N)C5C42)C(C)C (stereo not given),inactive: > 100 µM
11,c1cc(C[S+]2CCCC2)ccc1C[S+]1CCCC1,inactive: > 100 µM
12,Cc1coc2c1C(=O)C(=O)c1ccccc1-2,inactive: 1.49 µM
13,CC(=O)N(C(C)=O)n1c(Cc2ccc(C)cc2)nn(C(C)=O)c1=O,inactive: > 100 µM
14,COc1ccc(CC2OC3(CCCCC3)CC3CCCCN32)cc1 (stereo not given),inactive: > 100 µM
15,OCC(Cn1cncn1)(c1ccc(F)cc1F)n1cncn1 (stereo not given),inactive: > 100 µM
16,c1cncc(C2N3CCCCC3[C@@H]3c4[nH]c5ccccc5c4CCN23)c1 (stereo not given in full),inactive: 91.6 µM
17,O=C(c1nc2ccccc2nc1O)C(O)c1ccccc1 (stereo not given),inactive: > 100 µM
18,CCCCn1c2c(n(CCCC)c1=[Se])-c1c(n(CCCC)c(=[Se])n1CCCC)S[Se][Se]S2,inactive: 15.5 µM
19,O=C(C1OC1c1ccc(F)cc1)C12CC3CC(CC(C3)C1)C2 (stereo not given),inactive: 20.2 µM
20,CC(=O)Nc1ccc2[nH]c(C(=O)N3CC(CCl)c4c3cc(N)c3ccccc43)cc2c1 (stereo not given),active: < 0.0211 µM
21,O=C(Nc1ccccc1-c1nn(C(=S)Nc2ccccc2)c(=S)n(C(=S)Nc2ccccc2)c1=O)C(F)(F)F,inactive: 24.1 µM
22,COC(=O)C(=O)C(C(=O)C(=O)Nc1cccc(OC)c1)c1nc2ccc(Cl)cc2nc1O (stereo not given),inactive: > 100 µM
23,CCc1n[nH]c(=O)n1CCCCCCCCCCCCn1c(CC)n[nH]c1=O,inactive: 52.2 µM

row,Structure (SMILES),GI50
1,COc1ccc2nc3ccc(OC)cc3c(SCCCl)c2c1,inactive: 38.7 µM
2,N=c1c2c3n(c4c(=O)n(-c5ccccc5)c(=S)n(c(=O)n1-c1ccccc1)c24)CCCCC3,inactive: > 100 µM
3,COc1ccc(C(F)(F)F)cc1NC(=O)O/N=C(/Cl)C(C)C,inactive: 18.8 µM
4,CC1=NN(C(=O)c2ccc(Cl)cc2)C(=O)/C1=C/c1ccco1,inactive: > 100 µM
5,CC1=CC(=O)CCC2(C)C1CC[C@@H]2OC=O (stereo not given in full),inactive: > 100 µM
6,CCOC(=O)C(CC#Cc1ccc(C#CCC(NC(C)=O)C(=O)OCC)cc1)NC(C)=O (stereo not given),inactive: > 100 µM
7,Brc1ccc(-c2[nH]c3ccccc3c2/N=N\c2ccccc2)cc1,inactive: 17.8 µM
8,CC1OC(O[C@@H]2OC=C(C=O)[C@@]3(O)CC[C@H](C)[C@@H]23)C(O)C(O)C1O (stereo not given in full),inactive: > 100 µM
9,CC1C2(C)OC(=N)C(C#N)(C(C)O2)C1(C#N)C#N (stereo not given),inactive: > 100 µM
10,CN(O)C(=O)CCC(NC(=O)CCC(N)C(=O)O)C(=O)NCC(=O)O (stereo not given),inactive: > 100 µM
11,CC(C)Cn1cnnc1NS(=O)(=O)c1cc(C(=O)NN)c(Cl)cc1S,inactive: > 10 µM
12,COc1ccc(/C=C(/c2ccc(OC)cc2)c2c(Cl)cc(Cl)c(/C(=C\c3ccc(OC)cc3)c3ccc(OC)cc3)c2/N=N/c2ccccc2)cc1,inactive: > 100 µM
13,O=C1Oc2ccccc2C(=O)/C1=C/NC(=S)NCCc1ccccc1,inactive: 36.8 µM
14,COc1cc2c(cc1OC)-c1c(cnn1C1OC(COC(C)=O)C(OC(C)=O)C(OC(C)=O)C1OC(C)=O)CC2 (stereo not given),inactive: > 100 µM
15,COc1ccc(/C=C2\N=C(SC)N(C)C2=O)cc1,inactive: > 100 µM
16,O=C1Nc2ccc([N+](=O)[O-])cc2/C1=N/NC(=S)Nc1ccc([N+](=O)[O-])cc1,inactive: 24.3 µM
17,Cc1cc(Cl)ccc1NC(=O)CCCC(=O)C1CCC/C1=N\NC(=O)CC#N (stereo not given),inactive: > 100 µM
18,O=C1c2cc3c(cc2CC1Br)CCC3 (stereo not given),inactive: 16 µM
19,CC(C)(Oc1ccccc1)C(=O)Sc1c(-c2ccccc2)c(=O)n(-c2ccccc2)c(=S)n1-c1ccccc1,inactive: 16.6 µM
20,Nc1nc(O)c([I+]c2ccccc2)c(=O)[nH]1,inactive: > 100 µM
21,CC(=O)n1nc(-c2nc3ccccc3nc2Cl)cc1Cl,inactive: 28.5 µM
22,Cc1cc(O)c2c(c1)C(=O)C(c1c(C)cc3c(c1O)C(=O)C1OC1C3=O)=CC2=O (stereo not given),inactive: 10.9 µM
23,O=[N+]([O-])/C(C(Cl)=C(Cl)Cl)=C(/Nc1ccccc1)Sc1ccccc1,inactive: 29.4 µM

row,Structure (SMILES),GI50
1,Cc1ccc(NC(=O)C(=O)C(C(=O)/C=C/c2ccccc2)C2OC(=O)c3ccccc32)c(C)c1 (stereo not given),inactive: > 100 µM
2,C/C(=C\CNc1ncnc2c1ncn2C1CCCCO1)COP(=O)(O)O (stereo not given),inactive: > 100 µM
3,CN1C(=O)CN2C(Cl)(Cl)C2(c2ccccc2)c2cc(Cl)ccc21 (stereo not given),inactive: > 100 µM
4,COC(=O)C1=C([C@H]2COC(C)(C)O2)[C@H]2C[C@@H]1[C@@H]1OC(C)(C)O[C@@H]12,inactive: > 100 µM
5,N=C(N)N/N=C\c1c(-c2cccc([N+](=O)[O-])c2)nc2sccn12,inactive: 5.43 µM
6,IC[P+]1(c2ccccc2)CCCC1,inactive: 23.7 µM
7,CN(C)C1(C(=O)O)CC1,inactive: > 100 µM
8,CCOC(=O)C(=[N+]=[N-])C(=O)CSC#N,inactive: > 100 µM
9,COc1c(O)cc2oc(-c3ccc(O)cc3)cc(=O)c2c1O [HISPIDULIN],inactive: 49.1 µM
10,COc1ccccc1-c1nc(O)c2ccccc2n1,inactive: > 100 µM
11,COc1cc(/C=C2\[C@H]3c4c(c(OC)c(C)c(OC)c4OC)C[C@@H](C(=O)N2Cc2ccccc2)N3C(=O)OCC(C)C)c(OC)c(C)c1OC,inactive: > 100 µM
12,Cc1cc(C)c2c(c1)C/C(=C\c1cccc(C)c1C(=O)O)C2=O,inactive: 80.7 µM
13,COc1ccc(C(SC2C(O)C(CO)OC2n2ccc(N)nc2=O)(c2ccccc2)c2ccc(OC)cc2)cc1 (stereo not given),inactive: 12.2 µM
14,Sc1nc2c(c(-c3nc(S)nc4c3CCCCCCCCCC4)n1)CCCCCCCCCC2,inactive: > 100 µM
15,O=C(O)CNC(=O)c1ccccc1O [SALICYLURIC ACID],inactive: > 100 µM
16,O=c1[nH]ncc2[nH]c3c(c12)CCCc1ccccc1-3,inactive: 96.2 µM
17,OC1=CN=COc2ccccc21,inactive: > 100 µM
18,CCCCCCCCCCOCCOCCOCCOCCCCC(O)CCCCCCCC1=C[C@H](C)OC1=O (stereo not given in full),inactive: 11.4 µM
19,COc1ccc(OC2OC(CO)C(O)C(O)C2O)cc1 (stereo not given),inactive: > 100 µM
20,COc1cc(Br)c(/C=N\c2cccc3cc(OC)c(OC)cc23)cc1OC,inactive: > 100 µM
21,CCN(CCCl)c1cc(CN(C)C)cc(NC(=O)C23CCC(C(=O)Nc4cc(CN(C)C)cc(N(CC)CCCl)c4)(CC2)CC3)c1,inactive: 2.41 µM
22,CC(C)C1OC(=O)/C=C/C=C/C=C/C=C/C=C/CC(O)CC(O)CC(O)CC(O)CC(O)CC(O)CC(O)CC(O)/C=C/C1C (stereo not given),inactive: > 100 µM
23,COC(=O)C1=C(C(=O)OC)SC(=CC#CC=C2SC(C(=O)OC)=C(C(=O)OC)S2)S1,inactive: 9.95 µM

row,Structure (SMILES),GI50
1,Clc1nss/c1=N/c1nonc1-c1ccccc1,inactive: > 100 µM
2,COc1cccc2c1OC(c1ccc(Cl)cc1)C([N+](=O)[O-])=C2 (stereo not given),inactive: 4.85 µM
3,COC(=O)C(NC(=O)c1ccccc1)c1ccco1 (stereo not given),inactive: > 100 µM
4,CCCN(CCCC(NC(C)=O)C(=O)NCc1ccccc1)C(=O)N(CCCl)N=O (stereo not given),inactive: 25.5 µM
5,CC(C)=CCNc1ncnc2c1ncn2CCC(=O)O,inactive: > 100 µM
6,O=C1N/C(=N/N=C/C(O)C(O)C(O)CO)N/C1=C\c1c[nH]c2ccccc12 (stereo not given),inactive: > 100 µM
7,Cc1ccc(C)n2c1nc1ccc3ccccc3c12,inactive: > 100 µM
8,CN1C(=O)CN(NC(=O)C2=C(O)c3ccc(Br)cc3S(=O)(=O)N2)C1=S,inactive: > 100 µM
9,C=CCO[C@H]1CC[C@@]2(C)C(CC[C@]3(C)C2CC=C2[C@@H]4[C@@H](C)C(C)CC[C@]4(C(=O)O)CCC23C)C1(C)C (stereo not given in full),inactive: 17.3 µM
10,O=C1CCC2(c3ccc(F)cc3)Nc3ncncc3N12 (stereo not given),inactive: > 10 µM
11,O=[N+]([O-])C(=C1NCCN1)C(Cl)=C(Cl)Cl,inactive: > 100 µM
12,Cc1cc(O)nc(CNC(=O)c2cccc3ccccc23)n1,inactive: > 100 µM
13,CC(=O)C1CC2(c3ccccc3)C(=O)c3ccccc3N2O1 (stereo not given),inactive: > 100 µM
14,NC(=O)N/N=C(/c1nc2ccc([N+](=O)[O-])cc2nc1O)C(O)c1ccco1 (stereo not given),inactive: 44.6 µM
15,Cc1cc2c(Br)cc(Br)c(O)c2nc1C(=O)c1ccccc1,inactive: 15.5 µM
16,C=CCNC1=C2C[C@@H](C)C[C@@H](OC)C(OC(=O)CCCN(C)C)[C@H](C)/C=C(\C)[C@@H](OC(N)=O)[C@H](OC)/C=C\C=C(/C)C(=O)NC(=CC1=O)C2=O (stereo not given in full),inactive: 6.81 µM
17,COc1ccc(N2C(=O)C3c4[nH]c5cccc(Cl)c5c4C4CCC(C(C)(C)C)CC4C3C2=O)cc1 (stereo not given),inactive: > 100 µM
18,Cc1ccc(S(=O)(=O)N2CCCCC2CCO)cc1 (stereo not given),inactive: > 100 µM
19,CCOC(=O)c1nc2cc(C(F)(F)F)ccc2nc1Nc1ccc(C(=O)OC)s1,inactive: 51.3 µM
20,COc1ccc(Cl)cc1NC(=O)c1cccc([N+](=O)[O-])c1O,inactive: 20.4 µM
21,COc1cc(C2SCC(=O)N2c2cccc(Cl)c2)cc(OC)c1OC (stereo not given),inactive: 75.5 µM
